# Data: the supplement of paper PMC8728848
# Some of the results follow.
# B1: UEA-I (Ulex europaeus), P22972 (protein)
# chain: SDDLSFKFKNFSQNGKDLSFQGDASVIETGVLQLNKVGNNLPDETGGIARYIAPIHIWNCNTGEVASFITSFSFFMETSANPKAATDGLTFFLAPPDSPLRRAGGYFGLFEDTKDNDSSYQTVAVEFDTIGSPVNFDDPGFPHIGIDVNRVKSINAERWNKRYGLNNVANVEIIYEASSKTLTASLTYPSDQTSISVTSIVDLKEILPEWVSVGFSGGTYIGRQATHEVLNWYFTSNLINTNS
# Legend:
# Test in all cases: glycan array binding signal (z-score within array); higher = stronger binding
# Conditions in all cases: glycan notation: IUPAC condensed, linker removed
# [1] = target: GlcNAc(a1-4)Gal(b1-4)GlcNAc(b1-3)Gal(b1-4)Glc
# In short: (§1)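 Glycan array data came from 3228 arrays in the Consortium for Functional Glycomics database, and only arrays with an available protein sequence were kept. Glycan names were put into IUPAC-condensed notation, and columns mapping to the same glycan were averaged. The binding signal is a within-array Z-score, averaged across arrays of one protein sequence run at different concentrations or buffers and across linkers. A negative Z-score can be read as non-binding.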
# [2] = target: GlcNAc(a1-4)Gal(b1-4)GlcNAc(b1-3)Gal(b1-4)GlcNAc
# In short: as §1
# [3] = target: GlcNAc(a1-4)Gal(b1-4)GlcNAc(b1-3)Gal(b1-4)GlcNAc(b1-3)Gal(b1-4)GlcNAc
# In short: as §1
# [4] = target: GlcNAc(a1-4)Gal(b1-4)GlcNAc(b1-3)Gal(b1-4)[Fuc(a1-3)]GlcNAc(b1-3)Gal(b1-4)[Fuc(a1-3)]GlcNAc
# In short: as §1
# [5] = target: GlcNAc(a1-6)Gal(b1-4)GlcNAc
# In short: as §1
# [6] = target: GlcNAc(b1-2)Gal(b1-3)GalNAc
# In short: as §1
# [7] = target: GlcNAc(b1-2)Gal(b1-3)GlcNAc
# In short: as §1
# [8] = target: GlcNAc(b1-2)Man(a1-3)[GlcNAc(b1-2)Man(a1-6)]Man(b1-4)GlcNAc(b1-4)GlcNAc
# In short: as §1
# [9] = target: GlcNAc(b1-2)Man(a1-3)[GlcNAc(b1-2)Man(a1-6)]Man(b1-4)GlcNAc(b1-4)[Fuc(a1-6)]GlcNAc
# In short: as §1
# [10] = target: GlcNAc(b1-2)Man(a1-3)[GlcNAc(b1-4)][GlcNAc(b1-2)Man(a1-6)]Man(b1-4)GlcNAc(b1-4)GlcNAc
# In short: as §1
# [11] = target: GlcNAc(b1-2)Man(a1-3)[GlcNAc(b1-4)][GlcNAc(b1-2)Man(a1-6)]Man(b1-4)GlcNAc(b1-4)[Fuc(a1-6)]GlcNAc
# In short: as §1
# [12] = target: GlcNAc(b1-2)[GlcNAc(b1-4)]Man(a1-3)[GlcNAc(b1-2)Man(a1-6)]Man(b1-4)GlcNAc(b1-4)GlcNAc
# In short: as §1
# [13] = target: GlcNAc(b1-2)[GlcNAc(b1-4)]Man(a1-3)[GlcNAc(b1-4)][GlcNAc(b1-2)Man(a1-6)]Man(b1-4)GlcNAc(b1-4)GlcNAc
# In short: as §1
# [14] = target: GlcNAc(b1-2)[GlcNAc(b1-4)]Man(a1-3)[GlcNAc(b1-4)][GlcNAc(b1-2)[GlcNAc(b1-6)]Man(a1-6)]Man(b1-4)GlcNAc(b1-4)GlcNAc
# In short: as §1
# [15] = target: GlcNAc(b1-2)[GlcNAc(b1-4)]Man(a1-3)[GlcNAc(b1-4)][GlcNAc(b1-2)[GlcNAc(b1-6)]Man(a1-6)]Man(b1-4)GlcNAc(b1-4)[Fuc(a1-6)]GlcNAc
# In short: as §1
# [16] = target: GlcNAc(b1-2)[GlcNAc(b1-6)]Man(a1-6)[GlcNAc(b1-2)Man(a1-3)]Man(b1-4)GlcNAc(b1-4)GlcNAc
# In short: as §1
# [17] = target: GlcNAc(b1-2)[GlcNAc(b1-6)]Man(a1-6)[GlcNAc(b1-2)Man(a1-3)]Man(b1-4)GlcNAc(b1-4)[Fuc(a1-6)]GlcNAc
# In short: as §1
# [18] = target: GlcNAc(b1-2)[GlcNAc(b1-6)]Man(a1-6)[GlcNAc(b1-4)][GlcNAc(b1-2)Man(a1-3)]Man(b1-4)GlcNAc(b1-4)GlcNAc
# In short: as §1
# GlcNAc(b1-3)Fuc = target: GlcNAc(b1-3)Fuc
# In short: as §1
# GlcNAc(b1-3)Gal = target: GlcNAc(b1-3)Gal
# In short: as §1
# [19] = target: GlcNAc(b1-3)Gal(b1-3)GalNAc
# In short: as §1
# GlcNAc(b1-3)Gal(b1-4)Glc = target: GlcNAc(b1-3)Gal(b1-4)Glc
# In short: as §1
# [20] = target: GlcNAc(b1-3)Gal(b1-4)GlcNAc
# In short: as §1
# [21] = target: GlcNAc(b1-3)Gal(b1-4)GlcNAc(b1-2)Man(a1-3)[GlcNAc(b1-3)Gal(b1-4)GlcNAc(b1-2)Man(a1-6)]Man(b1-4)GlcNAc(b1-4)GlcNAc
# In short: as §1
# [22] = target: GlcNAc(b1-3)Gal(b1-4)GlcNAc(b1-2)Man(a1-3)[GlcNAc(b1-3)Gal(b1-4)GlcNAc(b1-2)Man(a1-6)]Man(b1-4)GlcNAc(b1-4)[Fuc(a1-6)]GlcNAc
# In short: as §1
# [23] = target: GlcNAc(b1-3)Gal(b1-4)GlcNAc(b1-2)[GlcNAc(b1-3)Gal(b1-4)GlcNAc(b1-6)]Man(a1-6)[GlcNAc(b1-3)Gal(b1-4)GlcNAc(b1-2)Man(a1-3)]Man(b1-4)GlcNAc(b1-4)GlcNAc
# In short: as §1
# [24] = target: GlcNAc(b1-3)Gal(b1-4)GlcNAc(b1-3)Gal(b1-4)GlcNAc
# In short: as §1
# [25] = target: GlcNAc(b1-3)Gal(b1-4)GlcNAc(b1-3)Gal(b1-4)GlcNAc(b1-2)Man(a1-3)[GlcNAc(b1-3)Gal(b1-4)GlcNAc(b1-3)Gal(b1-4)GlcNAc(b1-2)Man(a1-6)]Man(b1-4)GlcNAc(b1-4)GlcNAc
# In short: as §1
# [26] = target: GlcNAc(b1-3)Gal(b1-4)GlcNAc(b1-3)Gal(b1-4)GlcNAc(b1-2)Man(a1-3)[GlcNAc(b1-3)Gal(b1-4)GlcNAc(b1-3)Gal(b1-4)GlcNAc(b1-2)Man(a1-6)]Man(b1-4)GlcNAc(b1-4)[Fuc(a1-6)]GlcNAc
# In short: as §1
# [27] = target: GlcNAc(b1-3)Gal(b1-4)GlcNAc(b1-3)Gal(b1-4)GlcNAc(b1-2)[GlcNAc(b1-3)Gal(b1-4)GlcNAc(b1-3)Gal(b1-4)GlcNAc(b1-6)]Man(a1-6)[GlcNAc(b1-3)Gal(b1-4)GlcNAc(b1-3)Gal(b1-4)GlcNAc(b1-2)Man(a1-3)]Man(b1-4)GlcNAc(b1-4)[Fuc(a1-6)]GlcNAc
# In short: as §1
# [28] = target: GlcNAc(b1-3)Gal(b1-4)GlcNAc(b1-3)Gal(b1-4)GlcNAc(b1-3)Gal(b1-4)GlcNAc(b1-2)Man(a1-3)[GlcNAc(b1-3)Gal(b1-4)GlcNAc(b1-3)Gal(b1-4)GlcNAc(b1-3)Gal(b1-4)GlcNAc(b1-2)Man(a1-6)]Man(b1-4)GlcNAc(b1-4)GlcNAc
# In short: as §1
# [29] = target: GlcNAc(b1-3)Gal(b1-4)GlcNAc(b1-3)Gal(b1-4)GlcNAc(b1-3)Gal(b1-4)GlcNAc(b1-2)Man(a1-3)[GlcNAc(b1-3)Gal(b1-4)GlcNAc(b1-3)Gal(b1-4)GlcNAc(b1-3)Gal(b1-4)GlcNAc(b1-2)Man(a1-6)]Man(b1-4)GlcNAc(b1-4)[Fuc(a1-6)]GlcNAc
# In short: as §1
# [30] = target: GlcNAc(b1-3)Gal(b1-4)GlcNAc(b1-3)Gal(b1-4)GlcNAc(b1-3)Gal(b1-4)GlcNAc(b1-2)[GlcNAc(b1-3)Gal(b1-4)GlcNAc(b1-3)Gal(b1-4)GlcNAc(b1-3)Gal(b1-4)GlcNAc(b1-6)]Man(a1-6)[GlcNAc(b1-3)Gal(b1-4)GlcNAc(b1-3)Gal(b1-4)GlcNAc(b1-3)Gal(b1-4)GlcNAc(b1-2)Man(a1-3)]Man(b1-4)GlcNAc(b1-4)[Fuc(a1-6)]GlcNAc
# In short: as §1
# [31] = target: GlcNAc(b1-3)Gal(b1-4)GlcNAc(b1-3)Gal(b1-4)GlcNAc(b1-3)Gal(b1-4)GlcNAc(b1-3)Gal(b1-4)GlcNAc(b1-2)Man(a1-3)[GlcNAc(b1-3)Gal(b1-4)GlcNAc(b1-3)Gal(b1-4)GlcNAc(b1-3)Gal(b1-4)GlcNAc(b1-3)Gal(b1-4)GlcNAc(b1-2)Man(a1-6)]Man(b1-4)GlcNAc(b1-4)GlcNAc
# In short: as §1
# [32] = target: GlcNAc(b1-3)Gal(b1-4)GlcNAc(b1-3)Gal(b1-4)GlcNAc(b1-3)Gal(b1-4)GlcNAc(b1-3)Gal(b1-4)GlcNAc(b1-2)Man(a1-3)[GlcNAc(b1-3)Gal(b1-4)GlcNAc(b1-3)Gal(b1-4)GlcNAc(b1-3)Gal(b1-4)GlcNAc(b1-3)Gal(b1-4)GlcNAc(b1-2)Man(a1-6)]Man(b1-4)GlcNAc(b1-4)[Fuc(a1-6)]GlcNAc
# In short: as §1
# [33] = target: GlcNAc(b1-3)Gal(b1-4)GlcNAc(b1-3)Gal(b1-4)GlcNAc(b1-3)Gal(b1-4)GlcNAc(b1-3)Gal(b1-4)GlcNAc(b1-2)[GlcNAc(b1-3)Gal(b1-4)GlcNAc(b1-3)Gal(b1-4)GlcNAc(b1-3)Gal(b1-4)GlcNAc(b1-3)Gal(b1-4)GlcNAc(b1-6)]Man(a1-6)[GlcNAc(b1-3)Gal(b1-4)GlcNAc(b1-3)Gal(b1-4)GlcNAc(b1-3)Gal(b1-4)GlcNAc(b1-3)Gal(b1-4)GlcNAc(b1-2)Man(a1-3)]Man(b1-4)GlcNAc(b1-4)[Fuc(a1-6)]GlcNAc
# In short: as §1
# [34] = target: GlcNAc(b1-3)Gal(b1-4)GlcNAc(b1-3)Gal(b1-4)GlcNAc(b1-3)GalNAc
# In short: as §1
# [35] = target: GlcNAc(b1-3)Gal(b1-4)GlcNAc(b1-3)GalNAc
# In short: as §1
binder,measurement,setting,value
B1,glycan array binding signal (z-score),[1],0.251
same,glycan array binding signal (z-score),[2],0.134
same,glycan array binding signal (z-score),[3],0.394
same,glycan array binding signal (z-score),[4],0.074
same,glycan array binding signal (z-score),[5],-0.213
same,glycan array binding signal (z-score),[6],-0.195
same,glycan array binding signal (z-score),[7],-0.65
same,glycan array binding signal (z-score),[8],-0.246
same,glycan array binding signal (z-score),[9],-0.145
same,glycan array binding signal (z-score),[10],-0.101
same,glycan array binding signal (z-score),[11],-0.076
same,glycan array binding signal (z-score),[12],-0.205
same,glycan array binding signal (z-score),[13],-0.166
same,glycan array binding signal (z-score),[14],-0.221
same,glycan array binding signal (z-score),[15],-0.278
same,glycan array binding signal (z-score),[16],-0.171
same,glycan array binding signal (z-score),[17],-0.211
same,glycan array binding signal (z-score),[18],-0.211
same,glycan array binding signal (z-score),GlcNAc(b1-3)Fuc,-0.172
same,glycan array binding signal (z-score),GlcNAc(b1-3)Gal,-0.215
same,glycan array binding signal (z-score),[19],-0.194
same,glycan array binding signal (z-score),GlcNAc(b1-3)Gal(b1-4)Glc,-0.204
same,glycan array binding signal (z-score),[20],-0.206
same,glycan array binding signal (z-score),[21],-0.128
same,glycan array binding signal (z-score),[22],0.025
same,glycan array binding signal (z-score),[23],-0.035
same,glycan array binding signal (z-score),[24],-0.21
same,glycan array binding signal (z-score),[25],0.226
same,glycan array binding signal (z-score),[26],-0.122
same,glycan array binding signal (z-score),[27],-0.152
same,glycan array binding signal (z-score),[28],-0.196
same,glycan array binding signal (z-score),[29],0.034
same,glycan array binding signal (z-score),[30],-0.143
same,glycan array binding signal (z-score),[31],-0.054
same,glycan array binding signal (z-score),[32],-0.137
same,glycan array binding signal (z-score),[33],-0.181
same,glycan array binding signal (z-score),[34],-0.201
same,glycan array binding signal (z-score),[35],-0.237
